Experimental findings from the supplement of paper PMC10600219 are described below.

Structures can show the parent of a compound that is named as a salt. Over roughly 2,800 compounds, “cell viability relative to vehicle” has its median near 0.98; the lowest 2% begin near 0.45. Some of the results follow.

The test system of this assay is NCI-H2228 alectinib-DTP. Put plainly: cell viability relative to vehicle (fraction of vehicle); NCI-H2228 is an ALK-positive lung cancer line and DTP means drug-tolerant persister; higher = less growth inhibition. Conditions: 100 nM; treatment time 6 days. In outline: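 Values give cell viability as a fraction of vehicle-treated cells. Parental and drug-tolerant persister NCI-H2228 cells (persisters made with 1000 nM of a targeted drug for 13 days) were exposed in 384-well plates to the 3114-agent TargetMol anti-cancer compound library at 100 nM, with DMSO as vehicle. ATP was then read after 6 days by the CellTiter-Glo 3D Cell Viability Assay.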
On to `O=P(O)(NCCCl)NCCCl` [Palifosfamide], for which the cell viability came to 1.17.
As for `O=C/C=C/c1ccccc1` [Cinnamaldehyde], the cell viability came out at 1.09.
As to `N#Cc1nn(-c2c(Cl)cc(C(F)(F)F)cc2Cl)c(N)c1[S+]([O-])C(F)(F)F` (stereo not given) [Fipronil], the cell viability was found to be 0.905.
For `CC[C@@]1(O)C(=O)OCc2c1cc1n(c2=O)Cc2cc3ccccc3nc2-1` [(S)-(+)-Camptothecin] the value was 0.36.
Regarding `CN1c2ccccc2C(NCCCCCCC(=O)O)c2ccc(Cl)cc2S1(=O)=O` (stereo not given) [Tianeptine sodium], the cell viability worked out at 0.83.
For `COC(=O)Nc1nc2ccccc2[nH]1` [Carbendazim], the cell viability came out at 1.
`c1cnc(N2CCNCC2)nc1` [2-(1-Piperazinyl)pyrimidine] showed a cell viability of 0.928.
For the compound `C[C@H]1CCC2N(C1)C[C@H]1C3CC4[C@@H](CC(=O)C5C[C@@H](O)CC[C@@]54C)C3CCC1[C@]2(C)O` (stereo not given in full) [Peiminine], the cell viability worked out at 1.12.
Consider `CCc1c2c(nc3ccccc13)-c1cc3c(c(=O)n1C2)COC(=O)[C@]3(O)CC` [7-Ethylcamptothecin], for which the cell viability came out at 0.361.
For the compound `CCNC(=O)C[C@@H]1N=C(c2ccc(Cl)cc2)c2cc(OC)ccc2-n2c(C)nnc21` [Molibresib], the cell viability is 1.06.
`CC(C)=CCC[C@]1(C)C=Cc2c(O)c3c(c(CC=C(C)C)c2O1)O[C@]12C(=C[C@@H]4C[C@H]1C(C)(C)O[C@@]2(C/C=C(/C)C(=O)O)C4=O)C3=O` [Gambogic Acid] had a cell viability of 0.943.
On to `Cc1ncc(CNC(=O)N(CCCl)N=O)c(N)n1` [Nimustine Hydrochloride], for which the cell viability is 0.963.
Take `COC(=O)[C@]1(C)CC[C@]2(C)CC[C@]3(C)C4=CC=C5C(=CC(=O)C(O)=C5C)[C@]4(C)CC[C@@]3(C)[C@@H]2C1` [Pristimerin]: the cell viability was found to be 1.01.
Consider `C[C@H]1CCC/C=C/[C@@H]2C[C@H](O)C[C@H]2[C@H](O)/C=C/C(=O)O1` [Brefeldin A], for which the cell viability turned out to be 0.0894.
`CCC12C=CCN3CC[C@@]4(c5ccc(OC)cc5N(C)[C@H]4[C@@](O)(C(=O)OC)[C@@H]1OC(C)=O)[C@@H]32` (stereo not given in full) [Vindoline] registered a cell viability of 1.1.
Consider `O=C(CBr)c1ccc(O)cc1` [PTP Inhibitor I], for which the cell viability amounted to 0.976.
As to `c1c2c(cc3c1OCO3)-c1cc3ccc4c(c3c[n+]1CC2)OCO4` [Coptisine chloride], the cell viability worked out at 1.1.
As to `c1c2c(cc3c1OCO3)-c1cc3ccc4c(c3c[n+]1CC2)OCO4` [Coptisine], the cell viability turned out to be 1.06.
With `N.N.[Cl][Pt][Cl]` [Cisplatin], the cell viability came to 0.919.
Turning to `COc1cc(-n2c(=S)[nH]c3ccccc3c2=O)c(Cl)cc1Cl` [Mdivi 1], the cell viability came to 1.03.
`CC1=C(O)C(=O)C=C2C1=CC=C1[C@@]2(C)CC[C@@]2(C)[C@@H]3C[C@](C)(C(=O)O)CC[C@]3(C)CC[C@]12C` [Celastrol]: the cell viability turned out to be 1.1.
In turn, `O=C(O)CCCc1ccc(N(CCCl)CCCl)cc1` [Chloroambucil] registered a cell viability of 0.908.
Compound `O=C(O[C@H]1C[C@H]2CC[C@@H](C1)[N+]21CCCC1)C(O)(c1ccccc1)c1ccccc1` [Trospium chloride] showed a cell viability of 1.01.
To `COc1ccc(C(=O)N2CCCC2=O)cc1` [Aniracetam] belongs 1; to `O=C(O)CCCCCCCCCO` [10-Hydroxydecanoic Acid], 1.04; to `C[C@]12CCC(=O)C=C1CC[C@@H]1[C@@H]2C(=O)C[C@]2(C)C(=O)CC[C@@H]12` [Adrenosterone], 1.07.
As to `COc1ccc(-n2nc(C(F)(F)F)cc2-c2ccc(Cl)cc2)cc1`, the cell viability stood at 1.21.
`Clc1ccc([C@]23CNC[C@H]2C3)cc1Cl` [Amitifadine hydrochloride] yielded a cell viability of 1.06.
Take `Cc1c(C(=O)Nc2cccc(C(F)(F)F)c2)cc(-c2ccccc2)n1CCCN1CCOCC1`: the cell viability was 0.946.
For `CC(C)=CCC[C@H](C(=O)O)[C@H]1CC[C@]2(C)C3=C(CC[C@@]12C)[C@@]1(C)CCC(=O)C(C)(C)[C@H]1CC3` [β-Elemonic Acid] the value was 1.2; for `NC(=O)CN1CC(O)CC1=O` (stereo not given) [Oxiracetam], 1.02; for `COc1cc([C@@H]2c3cc4c(cc3[C@H](O)[C@H]3COC(=O)[C@@H]23)OCO4)cc(OC)c1OC` [Picropodophyllin], 0.997.
Regarding `C1=C2CCCN[C@H]2[C@@H]2C[C@H]1[C@H]1CCCCN1C2` [Aloperine], the cell viability worked out at 0.901.
Take `CN1CCC(c2c[nH]c3ccc(O)cc23)CC1`: the cell viability is 0.933.
For `COCC1(CO)C(=O)C2CCN1CC2` (stereo not given) the value was 0.995.
In turn, `Cc1ccccc1-n1c(Cn2cnc3c(N)ncnc32)nc2cccc(C)c2c1=O` yielded a cell viability of 1.07.
The compound `C=CC[C@]1(O)CC[C@H]2[C@@H]3CCC4=CC(=O)CCC4=C3C=C[C@@]21C` [Altrenogest] yielded a cell viability of 0.948.
`C/C(=C\c1csc(C)n1)[C@@H]1C[C@@H]2O[C@]2(C)CCC[C@H](C)[C@H](O)[C@@H](C)C(=O)C(C)(C)[C@@H](O)CC(=O)O1` [Epothilone B] returned a cell viability of 0.433.
As to `C=C[C@H]1CN2CC[C@H]1C[C@@H]2[C@@H](O)c1ccnc2ccccc12` [Cinchonine], the cell viability worked out at 1.17.
To `C1CCc2nnnn2CC1` [Pentetrazol] belongs 0.812; to `C/C=C/c1cc(OC)c(OC)cc1OC` [alpha-Asarone], 0.92.
Turning to `COC[C@H]1OC(=O)c2coc3c2[C@@]1(C)C1=C(C3=O)[C@@H]2CCC(=O)[C@@]2(C)C[C@H]1OC(C)=O` [Wortmannin], the cell viability is 0.978.
To `C=CCN1CC[C@]23c4c5ccc(O)c4O[C@H]2[C@@H](OCCOCCOCCOCCOCCOCCOCCOC)CC[C@@]3(O)[C@H]1C5` [Naloxegol oxalate] belongs 0.968; to `CN1[C@@H]2CC(O)C[C@H]1[C@@H]1O[C@@H]12` (stereo not given in full) [Scopine], 0.85; to `O=S(=O)(CC1CS1)c1ccc(Oc2ccccc2)cc1` (stereo not given), 1.03.
`CC1(C)CC(O)CC(C)(C)N1[O]` [Tempol] had a cell viability of 1.11.
With `CC(=O)OC(C)(C)/C=C/C(=O)[C@](C)(O)[C@H]1[C@H](O)C[C@@]2(C)[C@@H]3CC=C4[C@H](C[C@H](O)C(=O)C4(C)C)[C@]3(C)C(=O)C[C@]12C` [Cucurbitacin B], the cell viability amounted to 0.146.
Turning to `CC(C)(C)c1cc(C(C)(C)C)c2c(c1)C(O)(C(F)(F)F)C(=O)O2` (racemic), the cell viability came out at 1.01.
Compound `NCCCNCCCN` [Bis(3-aminopropyl)amine] showed a cell viability of 0.833.
`C#C[C@]1(O)CC[C@H]2[C@@H]3CCC4=CC(=O)CC[C@]4(C)[C@H]3CC[C@@]21C` [Ethisterone] registered a cell viability of 1.2.
